From the supplement of paper PMC12217912
Some of the results follow. The full chains were built here from the parent and the listed change. Values near 0.05 are background.

B1: TEV protease; numbered along this chain (parent)
chain: MGESLFKGPRDYNPISSSICHLTNESDGHTTSLYGIGFGPFIITNKHLFRRNNGTLVVQSLHGVFKVKDTTTLQQHLVDGRDMIIIRMPKDFPPFPQKLKFREPQREERICLVTTNFQTKSMSSMVSDTSCTFPSGDGIFWKHWIQTKDGQCGSPLVSTRDGFIVGIHSASNFTNTNNYFTSVPKNFMELLTNQEAQQWVSGWRLNADSVLWGGHKVFMVKPEEPFQPVKEATQL

Variants of: B1
Test: raw area under fraction-flipped curve 0-4 h after induction (AUC4h, not background-subtracted), DNA-recorder readout of cleavage of the substrate (dimensionless); higher = more cleavage of the substrate by the protease variant
Details: temperature: 34 °C; time window: 0-4 h after rhamnose induction
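Further: Bxb1 expression induced with 0.2% (w/v) L-rhamnose at OD600 near 0.5, cultures sampled hourly, flipped fraction per protease–substrate barcode pair counted by paired-end Illumina sequencing.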

Row | Variant | area with substrate ENLCFQS | area with substrate ENLDFQS | area with substrate ENLEFQS | area with substrate ENLFFQS | area with substrate ENLGFQS | area with substrate ENLIFQS | area with substrate ENLKFQS | area with substrate ENLLFQS | area with substrate ENLNFQS | area with substrate ENLSFQS | area with substrate ENLWFQS | area with substrate ENLHFQS | area with substrate ENLPFQS | area with substrate ENLRFQS | area with substrate ENLVFQS | area with substrate ENLMFQS | area with substrate ENLQFQS | area with substrate ENLTFQS
1 | K46Q | 0.0602 | 0.0605 | 0.064 | 0.0546 | 0.0633 | 0.0636 | 0.0689 | 0.0709 | 0.0598 | 0.051 | 0.0557 | – | – | – | – | – | – | –
2 | H47S | 0.0599 | 0.0723 | 0.0598 | 0.0737 | – | 0.0661 | 0.0578 | 0.0734 | 0.0555 | 0.0637 | 0.0646 | 0.052 | 0.0633 | 0.0595 | 0.0647 | – | – | –
3 | N52R | 0.0658 | – | 0.0432 | 0.0522 | – | – | 0.0602 | – | 0.0686 | 0.0645 | – | 0.0555 | – | – | – | 0.0661 | 0.0639 | –
4 | N53I | 0.0635 | 0.0514 | 0.0666 | 0.0656 | – | – | 0.0679 | – | 0.0589 | 0.0658 | – | 0.062 | 0.0636 | 0.0647 | 0.0647 | – | 0.0658 | –
5 | G54Y | 0.0731 | – | 0.0607 | 0.0617 | 0.0711 | – | – | – | 0.0628 | 0.053 | 0.0664 | – | – | 0.059 | 0.114 | – | 0.0638 | –
6 | L61K | 0.0736 | 0.051 | 0.0717 | – | 0.0626 | – | 0.0776 | – | 0.0674 | 0.0412 | – | 0.0758 | – | 0.0507 | – | – | – | –
7 | H62M | 0.0576 | 0.0989 | 0.0578 | 0.0857 | – | 0.0853 | 0.0685 | – | 0.0522 | – | 0.0757 | 0.0861 | – | – | – | – | 0.0641 | –
8 | K66I | 0.0779 | – | 0.069 | 0.0931 | – | – | – | 0.0824 | 0.0701 | 0.0733 | 0.0403 | 0.0838 | – | – | – | – | – | –
9 | D69R | 0.0765 | 0.068 | 0.0543 | 0.0779 | – | 0.0696 | 0.0757 | – | 0.0669 | 0.0603 | 0.0655 | 0.05 | 0.0436 | 0.0693 | 0.0324 | – | 0.0538 | 0.0596
10 | H76S | 0.06 | 0.0584 | 0.0634 | 0.0888 | – | 0.0784 | 0.0699 | – | 0.0599 | 0.0325 | 0.0645 | 0.0638 | 0.0594 | 0.0703 | – | 0.0616 | – | –
11 | L77D | 0.0567 | 0.0668 | – | 0.0634 | 0.0615 | 0.0618 | 0.0652 | – | 0.0702 | 0.0799 | 0.0588 | 0.062 | 0.0649 | 0.0665 | – | 0.0592 | 0.0587 | –
12 | R81E | 0.0561 | 0.0587 | 0.0615 | 0.0597 | 0.069 | 0.0591 | 0.0627 | 0.0482 | 0.0621 | – | – | 0.0617 | – | – | – | – | 0.0627 | –
13 | I84C | 0.0752 | 0.0513 | – | – | 0.0587 | 0.0776 | 0.0844 | – | 0.0603 | 0.0696 | 0.0738 | 0.0682 | – | – | 0.118 | – | 0.0844 | –
14 | M88I | 0.0695 | 0.114 | – | 0.093 | 0.0928 | – | – | 0.0738 | 0.0672 | 0.0512 | – | – | 0.0587 | 0.0761 | – | – | – | –
15 | F95G | 0.0585 | 0.06 | 0.0497 | 0.0633 | 0.0522 | – | – | – | – | 0.052 | – | – | 0.0714 | – | – | 0.0579 | – | 0.0655
16 | Q97I | 0.0809 | 0.0705 | – | 0.0437 | 0.0693 | – | – | – | 0.0696 | – | 0.0666 | – | – | 0.0794 | – | – | – | –
